The structures appear in SMILES notation. Out of some 310,000 compounds screened, about 14,000 (4.5%) showed an effect of 50% or more. Effects have a minus sign here. The list shows a part of the results.
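Further: peak tail current of the secondary pulse compared with the same well before compound.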

The target in this assay is human ether-à-go-go-related gene (hERG) potassium channel (human, UniProt Q12809). The assay is described as follows: primary screen, population patch clamp on CHO cells stably expressing hERG.
Sequence of human ether-à-go-go-related gene (hERG) potassium channel (Q12809 whole entry, looked up): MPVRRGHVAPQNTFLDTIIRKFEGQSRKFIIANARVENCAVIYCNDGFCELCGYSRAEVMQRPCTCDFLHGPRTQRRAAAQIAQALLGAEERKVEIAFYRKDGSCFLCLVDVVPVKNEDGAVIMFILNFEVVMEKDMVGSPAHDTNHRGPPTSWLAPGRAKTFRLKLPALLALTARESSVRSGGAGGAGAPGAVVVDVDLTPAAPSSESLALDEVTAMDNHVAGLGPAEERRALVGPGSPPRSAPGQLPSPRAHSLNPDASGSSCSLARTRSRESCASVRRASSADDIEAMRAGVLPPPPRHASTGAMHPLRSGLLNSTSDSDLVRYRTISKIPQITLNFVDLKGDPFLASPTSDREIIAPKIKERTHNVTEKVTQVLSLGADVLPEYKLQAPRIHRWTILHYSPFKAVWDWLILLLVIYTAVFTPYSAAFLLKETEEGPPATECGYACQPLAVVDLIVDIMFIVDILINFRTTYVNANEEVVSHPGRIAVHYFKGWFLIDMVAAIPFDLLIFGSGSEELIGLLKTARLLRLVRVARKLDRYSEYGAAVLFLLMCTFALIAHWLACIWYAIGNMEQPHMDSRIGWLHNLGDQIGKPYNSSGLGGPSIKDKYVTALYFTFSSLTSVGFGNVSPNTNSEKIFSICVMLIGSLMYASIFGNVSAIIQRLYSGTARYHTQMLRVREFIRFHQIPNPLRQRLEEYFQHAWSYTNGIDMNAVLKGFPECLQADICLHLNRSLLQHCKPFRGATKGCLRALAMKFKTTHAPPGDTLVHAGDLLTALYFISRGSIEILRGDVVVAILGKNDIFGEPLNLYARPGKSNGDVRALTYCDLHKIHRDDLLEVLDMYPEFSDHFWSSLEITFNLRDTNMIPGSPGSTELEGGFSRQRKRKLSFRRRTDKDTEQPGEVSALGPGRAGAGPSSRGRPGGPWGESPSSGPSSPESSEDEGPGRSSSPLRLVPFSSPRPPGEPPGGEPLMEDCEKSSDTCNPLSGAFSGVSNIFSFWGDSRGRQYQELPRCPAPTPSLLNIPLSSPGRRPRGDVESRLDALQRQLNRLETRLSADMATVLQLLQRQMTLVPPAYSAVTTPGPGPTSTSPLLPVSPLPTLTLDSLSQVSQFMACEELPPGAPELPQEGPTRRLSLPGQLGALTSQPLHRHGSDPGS
For `Cc1nnc(NC(=O)c2ccc(S(=O)(=O)N3CC(C)CC(C)C3)cc2)o1` (centres unmarked), the “hERG current change (%, negative = inhibition) at 10uM” value came to 5.33%. For `O=C(CN(Cc1cccs1)C(=O)CNS(=O)(=O)c1ccc(Cl)cc1)NCC1CCCO1` (centres unmarked) the value was -10.7%; for `O=C(COc1ccccc1)Nc1ccccc1F`, 12.7%; for `O=C(OCC(=O)N1CCc2ccccc21)c1ccccc1[N+](=O)[O-]`, -2.35%. `CC1CCC2(CC1)NC(=O)N(CC(=O)N(Cc1ccccc1)C(C)(C)C)C2=O` (centres unmarked): the “hERG current change (%, negative = inhibition) at 10uM” value is 10.6%.

In the case of `COc1cccc(NC2=C(Cl)C(=O)OC2OC(=O)c2ccco2)c1` (centres unmarked), the “hERG current change (%, negative = inhibition) at 10uM” value is on record as 8.53%. Take `O=C1CC(C(=O)O)S/C(=N\NC(=O)c2ccc(F)cc2)N1` (centres unmarked): the “hERG current change (%, negative = inhibition) at 10uM” value was -1.66%.

With `O=C(NNc1nc(-c2ccccc2)cs1)c1ccccc1`, the “hERG current change (%, negative = inhibition) at 10uM” value is on record as 3.27%. Next, `Cc1ccc(-n2ccc(=O)c(C(=O)Nc3ccc(S(=O)(=O)N4CCOCC4)cc3)n2)cc1`: 7.92%; `CC(C)(C)NC(=O)NC(=O)COC(=O)c1cccc(S(=O)(=O)N2CCCCC2)c1`: 9.66%; `Cc1nc2ccccc2c2c1C(=O)N(c1cccc(C(=O)O)c1)C2=O`: 23.2%.

For `Clc1ccc(Cl)c(OCc2cc(-c3ccccc3Cl)on2)c1`, the “hERG current change (%, negative = inhibition) at 10uM” value came out at 18.7%. On to `Cc1cc(C(=O)OCC(=O)c2ccc(Br)s2)c(C)o1`, for which the “hERG current change (%, negative = inhibition) at 10uM” value was -1.64%.

Consider `c1ccc(CNc2ncnc3sc4c(c23)CCCC4)nc1`, for which the “hERG current change (%, negative = inhibition) at 10uM” value was -27.4%. For `CC(/C=N/NC(=O)c1nnn(-c2nonc2N)c1CN1CCCCC1)c1ccccc1` (centres unmarked) the value was -21.8%; for `CC1(C)CC(=O)c2cc(N=C/C(C(=O)c3ccccc3)=C(\O)c3ccccc3)c(=O)oc2C1`, 17.6%.

`CCc1n[nH]c(=S)n1/N=C/c1ccc2c(c1)OCO2`: the “hERG current change (%, negative = inhibition) at 10uM” value is listed as 11.3%.

In the case of `COc1ccccc1OCc1ccc(C(=O)NN)o1`, the “hERG current change (%, negative = inhibition) at 10uM” value was found to be 16.5%. For `Nc1ccc(-c2ccc(C(=O)O)s2)cn1` the value was 8.16%; for `O=C(Nc1ccc2c(c1)OCCO2)C1CCCN(S(=O)(=O)c2cccs2)C1` (centres unmarked), 4.28%. Regarding `COc1ccc(CN(C(=O)c2snc(C(N)=O)c2N)C(CC(C)C)C(=O)NC2CCCCC2)cc1` (centres unmarked), the “hERG current change (%, negative = inhibition) at 10uM” value is -9.95%. Next, `O=C(NCc1nc(-c2ccccc2)no1)c1ccc(Br)o1`: -6.85%; `O=C(O)CCCC(=O)Nc1ccccc1C(=O)N1CCOCC1`: 10.5%; `Cc1cc(CNC(=O)c2cccnc2Cl)c2ccccc2n1`: -2.82%.

With `C[N+](C)(C)CC(=O)Nc1ccc(Cl)cc1C(=O)c1ccccc1.[Br-]`, the “hERG current change (%, negative = inhibition) at 10uM” value came out at 21.4%.

Turning to `NC(=O)c1ccccc1N/C=C/C(=O)c1ccco1`, the “hERG current change (%, negative = inhibition) at 10uM” value is 10.5%. For `NC(=O)CN(N=Nc1cccc([N+](=O)[O-])c1)c1cccc([N+](=O)[O-])c1` the value was -12.8%; for `Cc1ccccc1CCNCc1cc2cccc(C)c2[nH]c1=O`, -52.2%; for `COc1ccc(C(=O)O)cc1S(N)(=O)=O`, 11.3%. Consider `CCOc1ccc(S(=O)(=O)Nc2cccc(N(C)S(C)(=O)=O)c2)cc1`, for which the “hERG current change (%, negative = inhibition) at 10uM” value is listed as 4.37%. For `O=C(CCN1C(=O)COc2ccccc21)NCCCN1CCCC1` the value was 10.3%. Regarding `COc1ccc2[nH]cc(C(=O)NCCc3ccccc3)c(=O)c2c1`, the “hERG current change (%, negative = inhibition) at 10uM” value worked out at 9.85%. As for `O=C(Nc1ccncc1)C1CCN(S(=O)(=O)c2ccccc2C(F)(F)F)CC1`, the “hERG current change (%, negative = inhibition) at 10uM” value is -15.2%. For the compound `CC1(C)CC(=O)C2=C(C1)OC(N)=C(C#N)C21C(=O)N(Cc2ccccc2Cl)c2ccccc21` (centres unmarked), the “hERG current change (%, negative = inhibition) at 10uM” value is on record as 15.3%. For `O=C(NCc1ccccn1)C(=O)Nc1cc2c3c(c1)CC(=O)N3CCC2` the value was 8.15%.

On to `CCOc1ccc(NC(=O)Nc2c(C)n(C)n(-c3ccccc3)c2=O)cc1`, for which the “hERG current change (%, negative = inhibition) at 10uM” value worked out at 32%.

On to `Cn1c(=O)c2cc3c(nc2n(C)c1=O)CC(c1ccccc1)CC3=O` (centres unmarked), for which the “hERG current change (%, negative = inhibition) at 10uM” value is -3.1%. Next, `COc1ccccc1NC(=O)COC(=O)c1cn(C)c2ccccc12`: -2.15%; `O=C1C2C3CCC(C3)C2C(=O)N1CNc1ccccc1` (centres unmarked): 7.37%; `Cc1ncc(CC(=O)n2cc(C(=O)c3cc(F)ccc3O)cn2)s1`: -17.7%. Next, `Cc1ccccc1NC(=O)c1cccc(NC(=O)c2c(C(=O)O)cccc2[N+](=O)[O-])c1`: -4.29%; `Cc1ccc(-c2nc(Nc3ccc(N4CCOCC4)cc3)c3ccccc3n2)cc1`: 7.63%. `Nn1cnnc1SC1CCCCC1NS(=O)(=O)c1ccccc1` (centres unmarked): the “hERG current change (%, negative = inhibition) at 10uM” value is 13.9%. With `O=C(/C=C/c1cccc([N+](=O)[O-])c1)N(c1ccccn1)c1ccccn1`, the “hERG current change (%, negative = inhibition) at 10uM” value is reported as -35.8%.

These data come from article PMC4336329 (PLoS ONE, 2015).
